Over roughly 33,000 sequences, “E-score (-0.5 to 0.5)” has its median near -0.036; the highest 2% begin near 0.37. Some of the results follow.
What follows are sequences tested against T1, Yer064c (UniProt P40041) (assay: PBM E-score (8-mer binding enrichment) (E-score (-0.5 to 0.5)); higher = stronger / more preferred TF binding; most listed sequences are background and not binding sites). Conditions: protein concentration: 200 nM; construct: GST-full length.
T1 sequence: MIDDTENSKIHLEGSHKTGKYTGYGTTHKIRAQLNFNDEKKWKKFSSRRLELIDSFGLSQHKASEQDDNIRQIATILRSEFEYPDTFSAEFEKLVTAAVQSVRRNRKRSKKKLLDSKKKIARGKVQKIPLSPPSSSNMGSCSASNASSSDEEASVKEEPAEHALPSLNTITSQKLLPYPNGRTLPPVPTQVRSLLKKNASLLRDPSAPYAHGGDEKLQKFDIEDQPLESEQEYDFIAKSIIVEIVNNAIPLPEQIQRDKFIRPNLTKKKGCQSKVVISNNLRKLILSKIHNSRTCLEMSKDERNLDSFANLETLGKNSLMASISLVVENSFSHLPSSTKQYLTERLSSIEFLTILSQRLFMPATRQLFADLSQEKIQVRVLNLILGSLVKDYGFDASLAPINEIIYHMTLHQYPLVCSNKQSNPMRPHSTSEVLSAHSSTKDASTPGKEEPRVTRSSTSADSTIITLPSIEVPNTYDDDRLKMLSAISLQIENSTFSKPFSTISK
Method in brief: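 GST-tagged yeast TFs (full-length or DNA-binding domain) were made by PURExpress in vitro transcription/translation and applied at about 100-200 nM to universal all-10-mer Agilent arrays. The arrays were made double-stranded by primer extension, on fresh or once-stripped slides. Bound protein was detected with fluorescent anti-GST, and scans were normalised with masliner. Each ungapped eight-base word, pooled with its reverse complement, received an E-score (modified Wilcoxon-Mann-Whitney statistic) from the Universal PBM Analysis Suite.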

Sequence | PBM E-score
ACCCTGAG | 0.0733
ATAACTAG | -0.0149
GACGCACA | 0.0677
TCCGAAAA | -0.0172
ACTCTCGG | 0.151
GGATATGA | 0.135
CGGAAGAG | -0.262
ACCTACGG | -0.193
ACAAACTC | 0.0756
AAAAATAC | 0.14
CTCTCGAA | 0.074
GTGAACTA | 0.0767
GAAGGAAC | -0.157
TGCCGCCA | -0.171
AAGTCGGA | 0.18
AATCAGAT | 0.329
AGCTCGAG | -0.183
CGTATACG | -0.0729
AACTAGAC | 0.107
GTCATATA | 0.309
GAGCGCAC | -0.187
GAATTTCC | -0.2
ATCAGGCC | 0.0716
CAGAGGCG | -0.128
TAGTTACA | 0.0285

Sequence | PBM E-score
CAGTCTTC | 0.294
AAGTGAAT | 0.145
CTCGCCAG | -0.218
CACCCGGC | -0.174
GTCCGGAC | -0.0563
AGAATGAC | 0.246
ACCAATCG | -0.136
GTTCCAAC | 0.0414
ACTCGCTG | 0.128
ACCTCAGG | 0.0242
CACTCGAA | 0.212
GGCTATCA | -0.11
AGGGAGGG | -0.254
CTCTACCA | -0.14
AGTAGTGA | 0.17
AGAGGGAT | -0.27
GCGGACAA | 0.0889
AAGAGTTG | 0.0206
AGTATGCA | 0.108
CCAATAAA | 0.0533
GACCTGTA | -0.193
AGTCCGGA | 0.079
AGTAGCGA | 0.123
GGAAGCTA | -0.204
CTGGTTGA | 0.116

Sequence | PBM E-score
CAGTATGA | 0.265
ACGGCATG | -0.147
CACCACGA | 0.0612
AGACACAG | 0.136
CGGTATGC | -0.224
AAAATAAT | 0.197
CTCGATAA | 0.22
AAAAGAAC | -0.144
AGACACAT | 0.131
CCCCGTCG | -0.211
ACATTTGG | -0.208
GCACAGAC | 0.0471
CGAAGGTA | -0.142
GTAGCTGA | 0.0597
ATAAAGGA | -0.105
ATGGGTGG | -0.00495
ACGCAGAC | 0.218
ACCGTTCA | -0.179
ATGTGACG | -0.156
GTGCAAGA | -0.00957
ATTATTCC | -0.0627
ACTCACAT | 0.35
GCCCGCCC | -0.312
CACAGTAA | 0.131
GTTAACCA | 0.279

Sequence | PBM E-score
GAAAGTGC | -0.183
GCTGAGCA | 0.064
CTTTAAGA | 0.125
GAGCGACA | 0.00075
TCGAGTAA | 0.11
AGCTGTTG | 0.0703
ATGAGAAG | -0.0202
AGGCGCCT | -0.0389
ACGCGAGC | -0.0659
GAGGTCCA | -0.213
CAAACTGG | -0.152
AACGAATA | -0.203
CACCCTCG | -0.0423
GCAGTAGC | -0.281
ACGGGGAT | -0.0995
CTTGGGTC | 0.0527
TTGGAAAA | -0.178
AGGCAATA | 0.0155
CGAGGCCG | -0.232
AAGTCTGA | 0.173
CTAGGGAC | -0.145
GTGTCTCA | 0.323
CACAGAAC | 0.00675
CAGCCATA | -0.0611
AGTACGAC | 0.202

Sequence | PBM E-score
CTTGTCAA | 0.104
AATAATAT | 0.0658
AGCCATTC | 0.0873
AGGAGAAG | -0.128
GACATCTA | 0.0716
CCACATGG | 0.0871
CACGTGTA | -0.0349
ATCCCCAT | -0.112
CCGTACGC | -0.238
ATGTATGC | -0.102
AAGCCGGT | -0.264
GCGGGAGC | -0.0362
CAAGGGAG | -0.0243
TATTGTGA | 0.253
AGCTTCGC | -0.155
AAAGACTA | 0.392
CGTCCTAG | -0.109
CCCCATCA | -0.309
CAGCTATC | -0.212
ATCTAATA | 0.125
CGTAGATC | -0.189
ACTAGACA | 0.138
AGAGGATA | -0.17
GTTCCGGA | -0.091
CCTGCCAG | -0.212

Sequence | PBM E-score
ACGTTCCG | -0.232
AGTGGTAC | -0.103
ATGATCCG | -0.0261
ATGCAGCG | -0.12
AAAACGAC | 0.14
AGAATAGG | -0.16
GCTGTGCA | -0.191
GGCAGGCC | -0.192
CCCCCCGC | -0.157
GGCCAGCA | -0.256
CAAAGGTG | -0.0619
CCATCAGC | -0.05
CCCAATCC | -0.0499
GGAGACAA | -0.173
AATCCTAT | 0.115
CCAGGTTC | -0.291
GCGACCCA | -0.174
CTTTCCTC | -0.116
CCCACAAC | -0.0803
CGGTGGGA | 0.0414
AAAACTCT | -0.168
CACTCGCA | -0.00534
ATAGGCCA | -0.285
AGCGTGCA | 0.0006
ATTCACTG | 0.138

Sequence | PBM E-score
CTAATGGC | -0.0455
GATACTGC | -0.0585
CACCGGGG | -0.266
AGACGTCC | -0.0208
ATCTGAAA | 0.104
CCCTGTAG | -0.0674
GACAAGTA | -0.0277
ACAAACCG | -0.0275
CGCTCGAA | -0.141
AGGTCCTG | -0.0669
AAACCACA | -0.0212
AGAGCTTC | -0.152
ACGAAACG | -0.116
TAGATAAA | 0.192
GGTGGATA | -0.0384
CACTCAAC | 0.0472
GACTAACC | 0.44
GCTGCTTA | -0.0722
ACATAGTG | 0.0787
CCAATTGG | 0.0365
CCGTTTTA | -0.0266
CAACCCCC | -0.166

— the supplement of paper PMC3334620
